Among all 310,000 compounds or so, about 2,200 (0.71%) showed an effect of 50% or more. Effects have a minus sign here. Some of the results follow.
target: human ether-à-go-go-related gene (hERG) potassium channel (human, UniProt Q12809); test: primary screen, population patch clamp on CHO cells stably expressing hERG
Sequence (Q12809 whole entry, looked up): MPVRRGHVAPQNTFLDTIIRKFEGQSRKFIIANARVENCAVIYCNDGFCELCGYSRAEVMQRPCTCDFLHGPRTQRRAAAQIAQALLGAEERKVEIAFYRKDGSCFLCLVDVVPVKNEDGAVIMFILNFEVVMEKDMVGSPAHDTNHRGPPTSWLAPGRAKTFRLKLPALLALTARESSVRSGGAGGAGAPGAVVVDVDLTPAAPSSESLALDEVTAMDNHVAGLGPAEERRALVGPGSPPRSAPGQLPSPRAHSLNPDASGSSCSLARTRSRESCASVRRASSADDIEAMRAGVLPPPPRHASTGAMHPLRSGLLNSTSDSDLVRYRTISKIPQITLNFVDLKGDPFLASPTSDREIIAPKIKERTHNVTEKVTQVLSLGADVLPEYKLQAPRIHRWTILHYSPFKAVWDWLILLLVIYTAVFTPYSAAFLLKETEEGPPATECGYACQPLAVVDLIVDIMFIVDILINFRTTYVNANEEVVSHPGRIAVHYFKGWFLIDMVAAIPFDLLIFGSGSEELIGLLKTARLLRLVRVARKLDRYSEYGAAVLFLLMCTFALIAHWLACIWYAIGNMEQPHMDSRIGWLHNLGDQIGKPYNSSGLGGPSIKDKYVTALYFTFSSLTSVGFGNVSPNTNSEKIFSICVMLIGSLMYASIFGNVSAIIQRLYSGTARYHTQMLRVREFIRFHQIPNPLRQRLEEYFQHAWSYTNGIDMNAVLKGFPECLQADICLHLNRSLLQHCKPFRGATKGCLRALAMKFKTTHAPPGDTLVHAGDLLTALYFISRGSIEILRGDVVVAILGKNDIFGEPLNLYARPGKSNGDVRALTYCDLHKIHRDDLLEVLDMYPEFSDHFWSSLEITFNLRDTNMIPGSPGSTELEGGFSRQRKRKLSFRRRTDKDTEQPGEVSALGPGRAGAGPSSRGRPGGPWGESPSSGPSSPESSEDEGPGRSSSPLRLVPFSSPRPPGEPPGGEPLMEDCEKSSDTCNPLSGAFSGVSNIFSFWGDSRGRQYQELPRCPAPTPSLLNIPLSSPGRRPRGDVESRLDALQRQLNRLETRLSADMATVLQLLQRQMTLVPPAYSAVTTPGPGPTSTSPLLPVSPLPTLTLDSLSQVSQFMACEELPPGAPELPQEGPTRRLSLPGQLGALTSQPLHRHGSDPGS

SMILES	hERG current change (%, negative = inhibition) at 1uM
O=C(Nc1cccs1)Nc1ccc(Br)cc1F	7.79%
COCCN(C(=O)CSCc1ccc(C)cc1)c1c(N)n(CC(C)C)c(=O)[nH]c1=O	12.6%
O=C(c1ccco1)N1CCN(C(=O)c2cc(-c3ccccc3F)no2)CC1	1.43%
CCOC(=O)c1nnn(-c2nonc2-n2cccc2)c1-c1cccc([N+](=O)[O-])c1	10.1%
CN(C)CCCN(C(=O)c1ccc(C(=O)c2ccccc2)cc1)c1nc2ccc(F)cc2s1	-6.93%
CCCCC(=O)NCc1ccc2c(c1)cc(C)n2C	17.8%
Cc1c(NC(=O)C(C)OC(=O)c2sc3ccccc3c2Cl)c(=O)n(-c2ccccc2)n1C (stereo not shown)	11.8%
Cn1c(=O)c2[nH]c(N3CCCCC3)nc2n(C)c1=O	12%
C/C(=N\NC(=O)Cc1c(C)[nH][nH]c1=O)c1ccc2ccccc2c1	12.5%
COc1ccc(CNC(=O)Cc2cn(C)c3ccccc23)c(OC)c1	7.04%
O=c1[nH]c2ccccc2cc1-c1noc(-c2cccnc2)n1	7.64%
COc1ccc(NC(=O)c2ccccc2NC(=O)NC2CCCCC2)cc1	7.18%
CN1C[C@@H]2C[C@@H](c3cccn3-c3nccs3)N3CCC[C@@]23C1=O	1.26%
Cc1ccc(C(=O)Nc2ccccc2N2CCCC2)s1	19.9%
CCCN(CC(=O)Nc1ccccc1OC)C(=O)CSc1nc(C)cc(C)n1	11.9%
CCC(C)(C)n1nnnc1CN(Cc1cc2cc(OC)c(OC)cc2[nH]c1=O)C1CCCC1	9.59%
COc1ccc(N2CCN(C(CNS(=O)(=O)c3cccs3)c3cccnc3)CC2)cc1 (stereo not shown)	-45.2%
CC1CCCC(NC(=O)c2ccc3c(c2)OCCO3)C1C (stereo not shown)	11.9%
Cc1cc(N2CCN(C)CC2)nc2ccccc12	8.97%
COc1ccccc1NC(=O)c1ccc2c(c1)CCN2S(C)(=O)=O	11.8%
CC(C)c1nc(SCC(=O)Nc2ccc(C(=O)O)cc2)c2c3c(sc2n1)CCCC3	6.47%
O=C(Cn1c(-c2ccccc2)noc1=O)Nc1ccc(N2CCCCCC2)cc1	7.16%

SMILES	hERG current change (%, negative = inhibition) at 1uM
CCCCN(C)CCNC(=O)CCn1nc(-c2ccc(C)cc2)ccc1=O	-21.4%
COc1ccccc1NS(=O)(=O)c1cc(C(=O)NCc2cccnc2)ccc1C	-12.2%
CC(Sc1n[nH]c(N)n1)C(=O)C12CC3CC(CC(C3)C1)C2 (stereo not shown)	-5.1%
CCOC(=O)N1CCN(C(=O)CCc2ccc(S(=O)(=O)NC(C)C)cc2)CC1	10.5%
COc1ccccc1CC1CC(=O)N(c2cccc(Cl)c2C)C1=O (stereo not shown)	12%
O=C(Nc1ccc2c(c1)OCCO2)C1CC(c2ccccc2Cl)=NO1 (stereo not shown)	7.32%
COc1ccc(NC(=O)CSc2ccc(F)cc2)cc1S(=O)(=O)N1CCCCC1	13.1%
CC(=O)c1ccc(S(=O)(=O)NCCC(=O)NC(C)c2ccncc2)cc1 (stereo not shown)	11.8%
O=C(COc1ccc(/C=N/NC(=O)c2cc3ccccc3o2)cc1Cl)Nc1ccccc1	11.1%
O=C(Cn1c(=O)oc2ccccc21)NC(=O)NCc1ccccc1	7.69%
Cc1ccccc1OCC(=O)NNC=O	14.6%
CN(CC(=O)Nc1ccc2c(c1)OCO2)S(=O)(=O)c1ccc2c(c1)CCC(=O)N2	7.8%
CCOc1cc2[nH]c(=S)n(CC3CCCN3CC)c(=O)c2cc1OCC (stereo not shown)	-2%
COc1ccc(Cl)cc1NC(=O)NNC(=O)c1ccccn1	15.2%
Cc1ccc(N=Cc2ccc(N(C)C)cc2)cc1C	6.05%
COc1cc(OC)c(/C=C2\C(=O)Nc3ccccc32)c(OC)c1	5.79%
Cc1ccc(CNC(=O)C(=O)NCC2OCCCN2S(=O)(=O)c2ccc(F)cc2)cc1 (stereo not shown)	12.4%
COCCn1cnnc1SCC(=O)Nc1cccc(S(=O)(=O)N(C)c2ccccc2)c1	-5.05%
COc1cccc(CC(NC(C)=O)C(=O)NC2CCN(c3nnnn3-c3ccccc3)CC2)c1 (stereo not shown)	6.82%
O=S(=O)(Nc1cc(C(F)(F)F)ccc1N1CCOCC1)c1ccc2ccccc2c1	3.54%
Cc1cccc(C2Nc3ccccc3C(=O)N2CCc2ccccc2)n1 (stereo not shown)	-4.25%
Cl.Nc1cccc2c3c(oc12)CCCC3	18.5%

SMILES	hERG current change (%, negative = inhibition) at 1uM
C/C=C\C(=O)Nc1cccc(C2=NOC3(C2)C[C@@H](C(N)=O)N(C(=O)CCCCC)C3)c1 (stereo partly shown)	-1.83%
CN(CC(=O)Nc1ccccc1Cl)CC(=O)c1c(N)n(Cc2ccccc2)c(=O)n(C)c1=O	4.57%
COc1c2ccoc2c(OC[C@@H](OC(C)=O)C(C)(C)O)c2oc(=O)ccc12	16.4%
O=c1oc2cc(S(=O)(=O)NCCCO)ccc2c2ccc(S(=O)(=O)NCCCO)cc12	18.3%
CC12CC(c3ccccc3O1)N(C(=O)c1ccco1)C(=O)N2c1ccccc1 (stereo not shown)	5.54%
CSc1ccc(CN2CCN(CCC(C)C)C(CCO)C2)cc1 (stereo not shown)	-10.2%
CCOc1ccc(S(=O)(=O)N2CCN(C(=O)c3cc4c(s3)CCCC4)CC2)cc1	3.05%
CN(CC(=O)N1CCC(C(N)=O)CC1)S(=O)(=O)c1ccc2ccccc2c1	11.5%
COc1cc(/C=C/C(=O)OCC(=O)Nc2ccc(S(N)(=O)=O)cc2)ccc1O	8.9%
CC1CC(C)CN(S(=O)(=O)c2ccc3oc(=O)ccc3c2)C1 (stereo not shown)	-13.3%
Cc1ccc(C(=O)Nc2ccncc2)cc1[N+](=O)[O-]	9.07%
CC(C)Cn1cnc2c1c(=O)n(CC(=O)O)c(=O)n2Cc1ccccc1	10.6%
O=C(O)C(=O)O.S=C(NCCc1ccccc1)N1CCN(Cc2ccccc2)CC1	1.07%
Cc1ccc2c(c1)N(S(=O)(=O)c1ccc3c(c1)NC(=O)CC(=O)N3)CCO2	9.44%
C/C(=N\Nc1nncc2ccccc12)c1ccc(C(C)(C)C)cc1	12.5%
O=c1cc(CO)oc(C(Nc2ccccn2)c2ccc(C(F)(F)F)cc2)c1O (stereo not shown)	7.36%
O=C(NC1CC2CCC(C1)N2C(=O)NC1CCCCC1)NC12CC3CC(CC(C3)C1)C2 (stereo not shown)	1.76%
Oc1ccc(C2N=C(c3ccccc3)NC(c3ccccc3)=N2)cc1	0.483%
Cc1cccc(NS(=O)(=O)c2ccc3c(c2)NC(=O)CO3)c1C	13.5%
COc1ccc(N2C(=O)CSC23CCC(C(C)(C)C)CC3)cc1 (stereo not shown)	0.138%
COCCn1c(SCC(=O)N2CCCC2)nnc1-c1ccoc1C	9.72%
O=C(Cc1c(F)cccc1Cl)NNC(=O)c1ccncc1	6.57%

SMILES	hERG current change (%, negative = inhibition) at 1uM
CN(C)c1nnc(-c2ccc(Cl)cc2)o1	10.9%
COC(=O)C1CCN(CC(=O)Nc2cc(Cl)ccc2OC)CC1	2.12%
Cc1cc(-c2nnc(CCC(=O)N(C)Cc3ccsc3)o2)no1	14.7%
CCCCNC(=O)Cn1cnc2ccc(S(=O)(=O)N3CCC(C)CC3)cc2c1=O	7.11%
O=C(Nc1cccc(S(=O)(=O)N2CCCCC2)c1)C1CC1	8.36%
COc1ccccc1-c1cc(C(F)(F)F)nc(N2CCOCC2)n1	16%
COCCOc1ccc(C(F)(F)F)cc1NC(=O)Cc1ccc(S(=O)(=O)N2CCOCC2)s1	7.35%
COc1cc(/C=N/N=C2/C(=O)Nc3ccccc32)ccc1O	10.1%
CN(Cc1cnccn1)C(=O)CC1C(=O)NCCN1CC(c1ccccc1)c1ccccc1 (stereo not shown)	5.94%
CCOC(=O)c1cnc2cc3c(cn2c1=O)CCCC3	3.95%
NS(=O)(=O)c1ccc(CCNC(=O)CSc2ccsc2[N+](=O)[O-])cc1	3.73%
O=c1[nH]ncc(N2CCCCC2)c1Cl	8.78%
Cc1cc(C(C)(C)C)oc1C(=O)N(CC(=O)NC1CCCC1)Cc1ccc(Cl)cc1	2.45%
C/C(=N\NC(=O)c1ccc(Cl)c(Cl)c1)c1ccccn1	18.4%
Cc1cc(F)ccc1S(=O)(=O)N1CCCOC1CNC(=O)C(=O)NCCCN1CCOCC1 (stereo not shown)	17.9%
Oc1ccc(/C=N/N(c2ccccc2)c2ccccc2)c(O)c1O	17.8%
CC(C)NS(=O)(=O)c1ccc2c(c1)NCC2	19.3%
COc1ccc(C(=O)O/N=C(\N)c2ccc(Br)cc2)cc1	15.8%
N#Cc1cc(-c2ccccc2)nc(Oc2ccc(Cl)cc2)n1	10.1%
Cc1nc(NC(=O)CCl)sc1C(=O)N(C)C	16.6%
CCOc1ccc(-n2cc(C(=O)N3CCC(C)CC3)c3cc(OC)c(OC)cc3c2=O)cc1	2.55%
O=C(NCCc1csc(-c2cccnc2)n1)c1ccccc1Br	4.97%

Source: article PMC4336329 (PLoS ONE, 2015)
